Test results as given in the RNAGym collection of RNA variant scans (doi:10.1073/pnas.2313332121).
This sample is rich in variants without activity.

B1: TPR 5TU (parent)
chain: GGAUCUUCUCGAUCUAACAAAAAAGACAAAUCUGCCACAAAGCUUGAGAGCAUCUUCGGAUGCAGAGGCGGCAGCCUUCGGUGGCGCGAUAGCGCCAACGUUCUCAACUAUGACACGCAAAACGCGUGCUCCGUUGAAUGGAGUUUAUCAUG

Variants of: B1
Experiment: polymerase ribozyme fitness, log enrichment relative to wild type (log ratio); higher = more active; in vitro selection for triplet polymerase activity
Method in brief: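 Each subunit of a heterodimeric triplet polymerase ribozyme was represented by a PCR-built, transcribed mutant library that underwent triplicate single-round in vitro selection with frozen incubation at −7 °C. Extended constructs were recovered by gel excision, streptavidin-bead capture and RT-PCR, and Illumina sequencing of input and output libraries kept genotypes with ≥10 input reads and ≥1 read per output. Fitness is the logarithm of genotype enrichment relative to wild-type enrichment, from inverse-variance-weighted replicate averages, with a logarithm base of 2.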

C38U A41G C93U U102G G117C G124C U145G U146A and C38U A41G G70C G86A G88A C103U U127C G133C cannot be ordered by “polymerase ribozyme fitness (log ratio)” value: at most -4.2 for the first, at most -4.2 for the second.

Compared with C38U A41U G94A, C38U A47C U53A A142C is lower in “polymerase ribozyme fitness (log ratio)” value: -1.15 for the first, -3.39 for the second.

C38U A47C U55G C75U G86U A89G C108U C118U and C38U A47C U82A C93U A98G A142U cannot be ordered by “polymerase ribozyme fitness (log ratio)” value: at most -4.2 for the first, at most -4.2 for the second.

Compared with C38U A47G U53A G141C, C38U A47U A121U U135A A142U is higher in “polymerase ribozyme fitness (log ratio)” value: -2.86 for the first, -2.42 for the second.

C38U A47U C54A A73G U78A A91U C114A A115U C116U G136C U146G and C38U A49C A66G A138U U144C cannot be ordered by “polymerase ribozyme fitness (log ratio)” value: at most -4.2 for the first, at most -4.2 for the second.

C38U A49C U55A C63G C87U C95U U109G A142C and C38U A49G U55G A60C G92C U144G cannot be ordered by “polymerase ribozyme fitness (log ratio)” value: at most -4.2 for the first, at most -4.2 for the second.

C38U A49U G128U U144C and C38U A49U U77G C103G cannot be ordered by “polymerase ribozyme fitness (log ratio)” value: at most -4.2 for the first, at most -4.2 for the second.

C38U A52C C57U G71A C79U C85G G94A G133U and C38U A52C G67C U77G U109G cannot be ordered by “polymerase ribozyme fitness (log ratio)” value: at most -4.2 for the first, at most -4.2 for the second.

C38U A52C U55G C93U U134G G136A A138G and C38U A52G A110C cannot be ordered by “polymerase ribozyme fitness (log ratio)” value: at most -4.2 for the first, at most -4.2 for the second.

Compared with C38U A52G C103G C118U U139C A147U, C38U A52G G70U C85U G117U is higher in “polymerase ribozyme fitness (log ratio)” value: at most -4.2 for the first, -3.27 for the second.

First: C38U A52G G92A G124U
Second: C38U A52U G62A G84U C85G
The “polymerase ribozyme fitness (log ratio)” value of the first is higher: -3.84 for the first, at most -4.2 for the second.

Going from C38U A60C C85U C118U G136A to C38U A60C U77G C87U G94A U101A C105A, the “polymerase ribozyme fitness (log ratio)” value falls from -0.726 to at most -4.2.

C38U A60G C75U C87A C96G and C38U A60U C87U C95G U135A cannot be ordered by “polymerase ribozyme fitness (log ratio)” value: at most -4.2 for the first, at most -4.2 for the second.

Compared with C38U A64G C93U U127G, C38U A73G C103A is higher in “polymerase ribozyme fitness (log ratio)” value: at most -4.2 for the first, -3.99 for the second.

C38U A89U A106U C132U U151G and C38U A91G C93A C118U U144G cannot be ordered by “polymerase ribozyme fitness (log ratio)” value: at most -4.2 for the first, at most -4.2 for the second.

First: C38U A106U U145C
Second: C38U A107C
The “polymerase ribozyme fitness (log ratio)” value of the first is higher: -1.24 for the first, -3.45 for the second.

C38U C43U C54U G67U G80U C85G C87U G124A and C38U C43U G92U C95U cannot be ordered by “polymerase ribozyme fitness (log ratio)” value: at most -4.2 for the first, at most -4.2 for the second.

C38U C51A G67C C96G A150U and C38U C51U C76A C79A A97U G100A C103G A106G A120G cannot be ordered by “polymerase ribozyme fitness (log ratio)” value: at most -4.2 for the first, at most -4.2 for the second.

Compared with C38U C51U U56A G94U C105A A121U, C38U C54A A73G C93A C96G C116U G136C is lower in “polymerase ribozyme fitness (log ratio)” value: -4.15 for the first, at most -4.2 for the second.

C38U C57A A60U C79U G92C A119C A150C and C38U C57A C87A cannot be ordered by “polymerase ribozyme fitness (log ratio)” value: at most -4.2 for the first, at most -4.2 for the second.

C38U C57A G74U G83C and C38U C57G G58A C116A A138G cannot be ordered by “polymerase ribozyme fitness (log ratio)” value: at most -4.2 for the first, at most -4.2 for the second.

C38U C57U A73G G88A and C38U C57U G68U C95U C103U cannot be ordered by “polymerase ribozyme fitness (log ratio)” value: at most -4.2 for the first, at most -4.2 for the second.

Compared with C38U C63A A66C U82G G92C A98C G100A A120C C125U, C38U C63G A97U G143C is higher in “polymerase ribozyme fitness (log ratio)” value: at most -4.2 for the first, -3.67 for the second.

Compared with C38U C63U A73G C87U, C38U C63U A91G C149G is lower in “polymerase ribozyme fitness (log ratio)” value: -0.21 for the first, at most -4.2 for the second.

C38U C76A C87A C108U G112C G141A and C38U C76A C108U U135G G140C A150U cannot be ordered by “polymerase ribozyme fitness (log ratio)” value: at most -4.2 for the first, at most -4.2 for the second.

C38U C76A G84A G94A U135G G141A U144C and C38U C76G cannot be ordered by “polymerase ribozyme fitness (log ratio)” value: at most -4.2 for the first, at most -4.2 for the second.

Compared with C38U C76U C85G C96A C103A C114U C132U, C38U C76U G81C is higher in “polymerase ribozyme fitness (log ratio)” value: -4.19 for the first, -0.0752 for the second.

First: C38U C79A A107C C114U A142U
Second: C38U C79U A121U C125A G143U
The “polymerase ribozyme fitness (log ratio)” value of the first is lower: at most -4.2 for the first, -3.92 for the second.

Going from C38U C85U C95G C105A to C38U C87A C116A A120C, the “polymerase ribozyme fitness (log ratio)” value falls from -3.93 to at most -4.2.

C38U C87A U104G and C38U C93U A137G U148C cannot be ordered by “polymerase ribozyme fitness (log ratio)” value: at most -4.2 for the first, at most -4.2 for the second.

First: C38U C95G
Second: C38U C95U U130C U139A U145A
The “polymerase ribozyme fitness (log ratio)” value of the first is higher: -1.3 for the first, at most -4.2 for the second.

Compared with C38U C105U C118G U139G, C38U C149U is lower in “polymerase ribozyme fitness (log ratio)” value: -1.24 for the first, -2.71 for the second.

C38U G42A G48C G67A U145G C149A and C38U G46U G84A U127G G143C cannot be ordered by “polymerase ribozyme fitness (log ratio)” value: at most -4.2 for the first, at most -4.2 for the second.

C38U G48C G92A A142C G143U and C38U G48U C51U A91U G92U C93U cannot be ordered by “polymerase ribozyme fitness (log ratio)” value: at most -4.2 for the first, at most -4.2 for the second.

C38U G50A G126U A147C and C38U G50C U56A A66G C69U G86U U90G A91C cannot be ordered by “polymerase ribozyme fitness (log ratio)” value: at most -4.2 for the first, at most -4.2 for the second.

Going from C38U G50U C57G C108G A120U to C38U G58A U61A U134C, the “polymerase ribozyme fitness (log ratio)” value rises from at most -4.2 to -1.57.

Compared with C38U G58C G81A U135G, C38U G59A A60C is higher in “polymerase ribozyme fitness (log ratio)” value: at most -4.2 for the first, -1.48 for the second.

C38U G62A A73G G81A C96G C108U and C38U G62C C76G G133C cannot be ordered by “polymerase ribozyme fitness (log ratio)” value: at most -4.2 for the first, at most -4.2 for the second.

C38U G70A C95A C99U A107U and C38U G71A G81A G83U C93A cannot be ordered by “polymerase ribozyme fitness (log ratio)” value: at most -4.2 for the first, at most -4.2 for the second.

C38U G74A A98G A120C A150C and C38U G74A C76G U82C C85G cannot be ordered by “polymerase ribozyme fitness (log ratio)” value: at most -4.2 for the first, at most -4.2 for the second.

C38U G74C G83A A142C and C38U G80C cannot be ordered by “polymerase ribozyme fitness (log ratio)” value: at most -4.2 for the first, at most -4.2 for the second.

Going from C38U G80C C96G A106U to C38U G83C, the “polymerase ribozyme fitness (log ratio)” value rises from at most -4.2 to -0.262.
